# According to the supplement of paper PMC3334620:
# In all, about 33,000 sequences were measured (“E-score (-0.5 to 0.5)”: median about -0.041, highest 2% from about 0.37 on). The list shows a part of the results.
# Molecular target: T1, Ecm22 (UniProt Q05958)
# T1 sequence: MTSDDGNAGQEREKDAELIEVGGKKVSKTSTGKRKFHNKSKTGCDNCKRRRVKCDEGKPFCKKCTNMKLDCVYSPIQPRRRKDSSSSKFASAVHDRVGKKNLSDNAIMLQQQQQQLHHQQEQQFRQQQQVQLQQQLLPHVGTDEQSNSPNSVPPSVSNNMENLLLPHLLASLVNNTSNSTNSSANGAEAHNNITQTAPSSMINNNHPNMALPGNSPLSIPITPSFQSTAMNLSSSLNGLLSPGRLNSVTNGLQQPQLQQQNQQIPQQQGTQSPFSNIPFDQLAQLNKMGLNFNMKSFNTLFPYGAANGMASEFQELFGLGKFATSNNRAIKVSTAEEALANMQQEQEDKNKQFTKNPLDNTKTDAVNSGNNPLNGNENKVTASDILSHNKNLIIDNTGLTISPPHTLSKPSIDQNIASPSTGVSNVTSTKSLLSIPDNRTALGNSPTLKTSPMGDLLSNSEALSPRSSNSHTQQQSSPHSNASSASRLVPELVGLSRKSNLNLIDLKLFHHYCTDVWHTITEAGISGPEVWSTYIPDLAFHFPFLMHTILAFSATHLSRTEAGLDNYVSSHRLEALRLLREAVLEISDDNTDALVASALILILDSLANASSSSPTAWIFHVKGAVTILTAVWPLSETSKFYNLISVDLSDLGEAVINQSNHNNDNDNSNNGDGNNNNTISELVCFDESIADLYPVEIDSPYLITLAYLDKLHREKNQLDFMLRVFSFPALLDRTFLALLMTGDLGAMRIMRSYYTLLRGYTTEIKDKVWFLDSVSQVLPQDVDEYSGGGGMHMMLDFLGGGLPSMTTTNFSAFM
# Assay: PBM E-score (8-mer binding enrichment) (E-score (-0.5 to 0.5)); higher = stronger / more preferred TF binding; most listed sequences are background and not binding sites
# Settings: protein concentration: 200 nM; construct: GST-full length
# In short: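 Yeast transcription factors carrying a GST tag, as full-length proteins or DNA-binding domains, were produced by PURExpress in vitro transcription/translation. About 100-200 nM protein was applied to universal all-10-mer Agilent arrays, double-stranded by primer extension on fresh or once-stripped slides. Bound protein was detected with fluorescent anti-GST, and scans were normalised with masliner. The Universal PBM Analysis Suite gave each ungapped eight-base word, pooled with its reverse complement, an E-score, a modified Wilcoxon-Mann-Whitney statistic.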
row,Sequence,PBM E-score
1,AGGTTCAG,-0.0601
2,CTTCCTCC,-0.11
3,AAGTCACC,-0.0698
4,CTAAGCTA,-0.0681
5,AGAAGGGG,-0.227
6,CATCCTTA,0.00699
7,CCGCCTCA,-0.29
8,CCTGCGCG,0.0218
9,CCAGGGAG,-0.195
10,ATTGACTA,0.18
11,CTCTTGGA,-0.229
12,GAAATCTC,0.129
13,GGCCGTCA,-0.208
14,ATTTGATG,-0.073
15,CCACCATA,-0.121
16,ACGCTCTG,-0.0531
17,GTCTCCCA,-0.227
18,ACATTCAC,-0.103
19,CGAAGATA,0.233
20,ACGTTAAC,0.0525
21,CTTCGTGA,0.209
22,ATGGGTGC,-0.0714
23,AGGAGTCC,-0.248
24,AAACACTC,0.0184
25,AGGATCTC,-0.0803

row,Sequence,PBM E-score
1,CAACCGAC,0.241
2,CTGCACAA,-0.214
3,AGCACACA,-0.246
4,TCTGCACA,-0.184
5,GACTGTTA,-0.223
6,CTGTTCCA,-0.186
7,AAGCAGGC,-0.0779
8,ATCATCCG,0.175
9,TCGGCACA,-0.0471
10,ACCCGGCT,-0.0626
11,GACGGCCC,-0.108
12,CCGAGTTA,0.0641
13,ACCATGAC,-0.154
14,AAGTCTAG,-0.178
15,ACACAGTA,-0.0309
16,ATTTGACC,-0.00361
17,GCACCTGA,-0.27
18,GCAAGGAC,-0.0871
19,AAGACAAC,0.0597
20,GCGGAAAA,0.0523
21,AATCTAAA,-0.093
22,CTGATATC,-0.00762
23,AGATGAGA,-0.0713
24,ACCCTGAT,-0.24
25,AACGATGG,0.374

row,Sequence,PBM E-score
1,ACAGAACT,-0.0778
2,CAGTAGTC,-0.0281
3,GTCGAACA,0.095
4,ACTTTGAA,0.0449
5,CACCGCTC,-0.0206
6,ATCACCAC,0.132
7,ATAAGGGC,-0.128
8,AGGCAAAC,-0.0579
9,ACTTAGCG,0.142
10,GTGCACGA,0.0323
11,GGAGTGAC,-0.0351
12,CAGAGAGG,-0.324
13,CCTTCTCG,-0.103
14,ATGATATG,0.149
15,CAGACGCC,-0.107
16,CCGCCCAA,-0.189
17,AGGCGAAG,-0.173
18,GCGTTCCA,0.141
19,ATTTGCAG,-0.137
20,CAGAGGAG,-0.104
21,CAACGCTC,0.023
22,CCTTGGCC,-0.34
23,GCATATTA,0.101
24,GCGTTTCC,0.0822
25,AGTCGTAG,0.304

row,Sequence,PBM E-score
1,GAGTTCTA,-0.0413
2,ATGATTCG,0.179
3,CTACCTTA,-0.15
4,TACAGGAA,0.0905
5,GTACGTCA,0.178
6,AGCGTGAT,0.0673
7,CCTTTCAC,0.00297
8,ATTGGCCG,-0.204
9,GCGTTACA,-0.00306
10,ATCTGTGG,-0.273
11,GCAGCAGA,-0.0242
12,GTTTTCTA,0.0995
13,ATAATCCG,0.0655
14,AGTACTTC,0.0665
15,GCCCTGTA,-0.13
16,GAAAAAGA,0.019
17,GCAAAAAA,0.00736
18,ATTCCGGA,-0.051
19,TATAATGA,0.211
20,CAGGAATC,-0.0546
21,CGCACCAG,0.216
22,ATTAAGTG,0.05
23,GGTTCAAA,-0.0138
24,AGAACCAG,-0.11
25,CGTATCCC,0.32

row,Sequence,PBM E-score
1,GCGCGGGA,0.0953
2,GCGCCACC,-0.161
3,ATTTCATC,-0.179
4,GCCCATCC,-0.00151
5,AATCGGCT,0.0173
6,AGTATTCG,0.193
7,CAGGGCAG,-0.104
8,CTTATTAA,0.0405
9,CAAAGTTC,0.0176
10,CGGCGGCC,0.0156
11,TACTAACA,-0.0338
12,CATTGTGC,-0.197
13,CGTGCGGA,-0.117
14,CAGGAGAA,-0.193
15,AATCCGTG,0.0228
16,CACAGATG,-0.262
17,GGTACACA,-0.126
18,CTAGGTTC,-0.0955
19,GAACCGGC,-0.0167
20,CCTTATCA,-0.119
21,CCTGTGAG,-0.207
22,ACACCGCG,0.148
23,ACATTCTC,0.022
24,ACCCAGAC,0.0385
25,TCTTCCAA,-0.177

row,Sequence,PBM E-score
1,TAGCCACA,-0.0542
2,GACGAGGC,0.163
3,AACACCTT,0.0319
4,AGTAGACT,-0.168
5,ATAGGTTA,0.00491
6,GAATACTA,0.141
7,GACGTTCC,0.141
8,CGGTCCTA,0.0351
9,TGGGGAAA,-0.112
10,ACATTGCT,-0.145
11,AATTCTAA,0.0281
12,CTTGTTGA,0.0392
13,AAACATCG,-0.0242
14,CATAAAAA,-0.00742
15,CCTAAATC,0.00658
16,GGATTCAA,-0.135
17,CAGCATAA,-0.0633
18,GCGAGGGA,0.177
19,ACATTTCC,0.0206
20,CCAAATCC,-0.35
21,ACATGTTG,-0.0256
22,GATTCAGC,0.0384
23,GCCTAGAA,-0.158
24,CAATAATG,-0.0401
25,GAAGACAA,0.131

row,Sequence,PBM E-score
1,TGAAGAAA,-0.127
2,TCCTATAA,-0.174
3,CCACATCC,-0.0751
4,CAGACTGG,-0.242
5,CTATCCGA,0.223
6,GGTTGTAC,0.0985
7,CAAAAATA,0.0647
8,ATGAACGC,0.118
9,GTCGAAAC,-0.0139
10,ATAGCGTC,-0.0303
11,GCCACGCC,-0.205
12,CACTTCGA,0.122
13,CTACAGGC,-0.354
14,TATGGACA,-0.0636
15,CCATGAAC,-0.0999
16,AGAACGGC,0.203
17,ACGTTCGC,0.157
18,ACTGGCTC,-0.201
19,AATCAACG,0.115
20,CAGGTGCG,0.0796
21,AGGTCCCC,-0.33
22,AGTCGTGC,-0.0872
